{
  "source": "paper PMC10668032",
  "note": "Some of the results follow. At the low end of the ranking the order means little.",
  "data": [
    {"biological_target": "SIX1-Q177R homeodomain (UniProt Q15475)", "assay": "universal protein binding microarray", "details": "Universal all-10-mer PBM (8x60K, AMADID 030236), 300 nM GST-tagged protein, Alexa Fluor 488 anti-GST; buffer, salt, pH and temperature not stated; high values mean tight binding; most listed sequences are background and not binding sites; double strand, one strand shown", "units": {"binding signal": "E-score"}, "values": [
      {"sequence": "GTCATGCA", "binding signal": -0.00443},
      {"sequence": "AATAACGC", "binding signal": -0.0441},
      {"sequence": "ATCAAGCG", "binding signal": -0.0443},
      {"sequence": "ACTGAATC", "binding signal": -0.166},
      {"sequence": "ACATCTTC", "binding signal": 0.0182},
      {"sequence": "ACCGCCCA", "binding signal": 0.12},
      {"sequence": "AAGGACTC", "binding signal": -0.161},
      {"sequence": "ATTTGTAA", "binding signal": -0.0512},
      {"sequence": "GCTGTTCA", "binding signal": -0.324},
      {"sequence": "GGTCCATA", "binding signal": -0.00669},
      {"sequence": "CGGCATGC", "binding signal": -0.261},
      {"sequence": "GTGACTCA", "binding signal": -0.101},
      {"sequence": "CTTCGCTA", "binding signal": -0.145},
      {"sequence": "AACATCAT", "binding signal": -0.202},
      {"sequence": "ATCAACCG", "binding signal": -0.22},
      {"sequence": "AGCCAGAC", "binding signal": -0.197},
      {"sequence": "CTCCCTAA", "binding signal": 0.165},
      {"sequence": "TGTTCAAA", "binding signal": 0.268},
      {"sequence": "CGCCTCCC", "binding signal": -0.013},
      {"sequence": "ATGAAGAC", "binding signal": -0.066},
      {"sequence": "CACTACTA", "binding signal": 0.138},
      {"sequence": "GATTGACC", "binding signal": 0.029},
      {"sequence": "ACGTTGAA", "binding signal": 0.00194},
      {"sequence": "CTATACAG", "binding signal": 0.0344},
      {"sequence": "AATGCTCG", "binding signal": -0.191},
      {"sequence": "AGATTCGC", "binding signal": -0.151},
      {"sequence": "CGCCATTA", "binding signal": 0.0573},
      {"sequence": "GAATTATC", "binding signal": -0.261},
      {"sequence": "GCCCCAAA", "binding signal": -0.0929},
      {"sequence": "GCCCCCAC", "binding signal": -0.00827},
      {"sequence": "GGCCGTAA", "binding signal": -0.093},
      {"sequence": "CACGACAG", "binding signal": 0.174},
      {"sequence": "TCAGGTCA", "binding signal": -0.0978},
      {"sequence": "AACTCTGG", "binding signal": -0.113},
      {"sequence": "AAGTTTAA", "binding signal": -0.0388},
      {"sequence": "ACTTTCCA", "binding signal": -0.0105},
      {"sequence": "AAATGTAA", "binding signal": -0.173},
      {"sequence": "CCAGTCGG", "binding signal": -0.0272},
      {"sequence": "ACTCTGGG", "binding signal": 0.0675},
      {"sequence": "CGACGACA", "binding signal": 0.0747},
      {"sequence": "CCTAAACA", "binding signal": 0.121},
      {"sequence": "AGTCAAAC", "binding signal": -0.124},
      {"sequence": "ATGTCGAG", "binding signal": -0.108},
      {"sequence": "ATTGTAAG", "binding signal": -0.0901},
      {"sequence": "TCTGCCAA", "binding signal": -0.234},
      {"sequence": "AGATCCGA", "binding signal": -0.192},
      {"sequence": "CTATAAGA", "binding signal": -0.178},
      {"sequence": "AGTGAAGA", "binding signal": -0.0248},
      {"sequence": "TTATCCAA", "binding signal": -0.135},
      {"sequence": "GGGAGTGA", "binding signal": 0.0455},
      {"sequence": "CAGTAAGC", "binding signal": -0.0851},
      {"sequence": "CCAATTCG", "binding signal": -0.0199},
      {"sequence": "CGGTAATC", "binding signal": 0.0446},
      {"sequence": "ACTAAGAA", "binding signal": -0.0179},
      {"sequence": "ACGATGTA", "binding signal": 0.0487},
      {"sequence": "CCCGGTCC", "binding signal": -0.101},
      {"sequence": "CAATCACG", "binding signal": -0.205},
      {"sequence": "AAATCTGC", "binding signal": -0.252},
      {"sequence": "AGGTCAAT", "binding signal": -0.161},
      {"sequence": "AATCTTAT", "binding signal": -0.051},
      {"sequence": "CTTTAGGC", "binding signal": -0.0485},
      {"sequence": "CGAAGCTC", "binding signal": -0.0697},
      {"sequence": "GCCTCTGA", "binding signal": 0.0284},
      {"sequence": "AGCAAGCG", "binding signal": -0.209},
      {"sequence": "CAGTGTTA", "binding signal": 0.402},
      {"sequence": "CTCACGGA", "binding signal": -0.1},
      {"sequence": "AATTTCGA", "binding signal": -0.0872},
      {"sequence": "ATAGTGAT", "binding signal": -0.0929},
      {"sequence": "TACTTCGA", "binding signal": -0.169},
      {"sequence": "ACCGACTG", "binding signal": -0.093},
      {"sequence": "AGCAGAGA", "binding signal": -0.128},
      {"sequence": "CAACCTTG", "binding signal": -0.0406},
      {"sequence": "ACGTTTGG", "binding signal": -0.0473},
      {"sequence": "ACCCCTAC", "binding signal": 0.294},
      {"sequence": "GCGGCAGA", "binding signal": -0.0824},
      {"sequence": "ATCCTTTA", "binding signal": -0.0924},
      {"sequence": "AATACTAA", "binding signal": -0.163},
      {"sequence": "ACAGCGCA", "binding signal": -0.109},
      {"sequence": "AGTGGGTA", "binding signal": 0.151},
      {"sequence": "ATCAGTCC", "binding signal": -0.141},
      {"sequence": "CACTTGGA", "binding signal": 0.139},
      {"sequence": "CCCCGTCC", "binding signal": 0.0843},
      {"sequence": "TAGCAGAA", "binding signal": -0.144},
      {"sequence": "ACTCCTCG", "binding signal": 0.118},
      {"sequence": "AATCATAT", "binding signal": -0.113},
      {"sequence": "AGTGCGAT", "binding signal": -0.0903},
      {"sequence": "GATGAACA", "binding signal": -0.0636},
      {"sequence": "ATTTGCCA", "binding signal": -0.167},
      {"sequence": "CCTCGGAG", "binding signal": 0.0798},
      {"sequence": "GACGGTGC", "binding signal": 0.175},
      {"sequence": "GTAACTTA", "binding signal": 0.0435},
      {"sequence": "CACTGATC", "binding signal": 0.136},
      {"sequence": "AGGCGAGA", "binding signal": -0.223},
      {"sequence": "ATCTATAG", "binding signal": -0.00374}
    ]}
  ]
}
